In the RNAGym collection of RNA variant scans (doi:10.7554/elife.90254):
Read counts are not given, so values of variants with three or more changes are uncertain.

B1: OR4K15 (parent)
chain: GUUAACGGUCAUAGGCCAUGGAAACUAGGAGCACCAUUUCGCUGCCAGUGAAGAAAUGAACAAAGAAAAUCUGGGCCAGGCAGGCAUCAAAAGAAAUAGUCUUGCGCUCAACCAGAAAGUCUGUAAUCAUUUUAAGGGUA

Variants of: B1
Assay: self-cleavage, relative activity (ratio to wild type); higher = more cleavage; in vitro, sequencing; the parent is a self-cleaving ribozyme
GUUAACGAUCAUAGGCCAUGGAAACUAGGAGCACCAUUUCGCUGCCAGUGAAGAAAUGAACAAAGAAAAUCUGGGCCAGGCGGGCAUCAAAAGAAAUAGUCUUGUGCUCAACCGGAAAGUCUGUAAUCAUUUUAAGGGUA showed a self-cleavage of 0.11.
With GUUAACGGUCAUAGGCCAUGGAAACUAGGAGCACCAUUUCGCUGCCAGUGAGGAAAUGAACAAAGAGAAUCUGGGCCAGGCAGGCAUCAAAAGGAAUAGUCUUGCGCUCAACCAGAAAGUCUGUAAUCAUUUUAAGGGUA the self-cleavage was 1.12.
Work on GUUAACGGUCAUAGGCCAUGGAAACUAGGAACACCAUUUCGCUGCCAGUGAAGAAAUGAACAAAGUAAAUCUGGGCCAGGCAGGCAUCAAAAGAAAUAGUCUUGCGCUCAACCGGAAAGUCUGUAAUCAUUUUAAGGGUA yielded a self-cleavage of 0.49.
With GUUAACGGUCAUAGGCCAUGGGAACUAGGAGCACCAUUUCGCUGCCAGUGAAGAAAUGAACAAAGGAAAUCUGGGCCAGGCAGGCAUCAAAAGAAAUAGUCUUGCGCUCAACCAGAAAGCCUGUAAUCACUUUAAGGGUA the self-cleavage was 0.41.
In the case of GUUAACGGUCAUAGGCCAUGGAAACUAGGAGCACCAUUUCGCUGCCAGUGAAGAAAUGAACAAAGAAAAUCUGGGCCAGGCAGGCAACAAAAGAAAUAGUCUUGCGCUCGACCAGAUAGUCUGUAAUCAUUUUAAGGGUA, the self-cleavage is reported as 0.22.
GUUAACGGUCAUAGGCCAGGGAAACUAGGAGCACCAUUUCGCUGUCAGUGAAGAAAUGAACAAAGAAAAUCUGGGCCAGGCAGGCAUCGAAAGAAAUAGUCUUGCGCUCAACCAGAAAGUCUGUAAUCAUUUUAAGGGUA gave a self-cleavage of 1.1.
With GUUAACGGUCAUAGGCCAUGGAAACUAGGAGCACCAUUUCGCUGCCAGUGAAGAAGUGAACAGAGAAAAUCUGGGCCAGGCAGGCAUCAAAAGGAAUAGUCUUGCGCUCAACCAGAAAGCCUGUAAUCAUCUUAAGGGUA the self-cleavage was 1.24.
With GUUAACGGUCAUAGGCCAUGGGAACUAGGAGCACCAUUUCGCUGCCAGUGAAGAAACGAACAAAGAAAAUCUGGGCCAGGCAGGCAUCAAAAGAAAUAGUCUUGCGCUCGACCAGAAAGUCUGAAAUCAUUUUAAGGGUA the self-cleavage was 0.03.
Variant GUUAACGGUCAUAGGCCAUGGAAACUAGGAGCACCAUUUCGCUGCCAGUGAAGAAACGAACAAAGAAAAUCUGGGCCGGGCAGGCAUCAAAAGAAAUAGUCUUGCGCUCAACCAGAAUGUCUGUAAUCAUUUUAAGGGUA has a self-cleavage of 0.06.
GUUAACGGUCAUAGGCCAUGGAAACUAGGAGCGCCAUUUCGCUGCCAGCGAAGAAGUGAUCAAAGAAAAUCUGGGCCAGGCAGGCAUCAAAAGAAAUAGUCUUGCGCUCAACCAGAAAGUCUGUAAUCAUUUUAAGGGUA showed a self-cleavage of 0.27.
With GUUAACGGCCAUAGGCCAUGGAAACUAGGAGCACCAUUUCGCUGCCAGUGAAGAAAUGUACAAAGAAAAUCUGGGCCAGGCAGGCAUCAAAAGAAAUAGUCUCGCGCUCAACCAGAAAGUCUGUAAUCAUUUUAAGGGUA the self-cleavage was 0.98.
GUUAACGGUCAUAGGCCAUGGAAACUGGGAGCACCAUUUCGCUGCCAGUGAAGAAAUGAACAAAGAAGAUCUGGGCCAGGCAGGCGUCAAAAGAAAUAGUCUUGCGCUCAACCAGAAAGUCUGUAAUCAUUUUAAGGGUA showed a self-cleavage of 1.
GUUAACGGUCAUAGGCCAUGGAAACUAGGAGUACCAUUUCACUGCCAGUGAAGAAAUGAACAAAGAAAAUCUGGGCCCGGCAGGCAUCAAAAGAAAUGGUCUUGCGCUCAACCAGAAAGUCUGUAAUCAUUUUAAGGGUA showed a self-cleavage of 0.11.
Work on GCUAACGGUCAUAGGCCAUGGAAACUAGGAGCUCCAUUUCGCUGCCAGCGAGGAAAUGAACAAAGAAAAUCUGGGCCAGGCAGGCAUCAAAAGAAAUAGUCUUACGCUCAACCAGAAAGACUGUAAUCAUUUUAAGGGUA yielded a self-cleavage of 0.02.
Variant GUUAACGGUCAUAGGCCAUGGAAACUAGGAGCACCAUUUCGCUGCCAGUGAAGAAAUGAACAAAGAAAAUCUGGGCCAGGCAGGCAUCAAAAGAAAUAGUCCUGCGCUCAACCAGAAAGUCUGUAAUCACUUUAAGGGUG has a self-cleavage of 1.63.
For GUUAACAGUCAUAGGCCAUGGAAACUGGGGGCACCAUUUCGCUGCCAGUGAAGAAAUGAACAAAGAAAAUCUGGGCCAGGCAGGCAUCAAAAGAAAUAGUCUUGCGCUCAACCAGAAAGUCUGUAAUCGUUUUAAGGGUA, the self-cleavage was 0.39.
GUUAACGGUCAUAGGCCAUGGAUACUAGGAGCACCAUUUCGCUGCCAGUGAAGAAAUGAACAAAGAAGAACUGGGCCAGGCAGGCAUCAAAAGAAAUAGUCUUGCGCUCAACCAGAAAGUCUGUAAUCAUUUUAAGGGUA showed a self-cleavage of 1.09.
In the case of GUUAACGGUCAUAGGCCAUGGAAACUAGGAGCACCAUCUCGCUGCCAGUGAAGAAACGAACAUAGAAAAUCUGGGCCAGGCAGGCAUCAAAAGAAAUAGUCUUGCGCUCAACCAGAAAGUCUGUAAUCAUUUUAAGGGUA, the self-cleavage is reported as 1.22.
GUUAACGGUCAUAGGCCAUGGAAACUAGGAGCACCAUUUCGCUGCCAGUGAAGAAAUGAACAAAGAAAAUCUGGGCCAGGCAGGCAUCAAAAGAGAUAGUCAUGCGCCCAACCAGAAAGUCUGUAAUCAUUUUAAGGGUA showed a self-cleavage of 0.02.
For GUUAACGGCCAUAGGCCAUGGAAACUAGGAGCACCAUCUCGCUGCCAGUGAAGAAAUGAACAAAGAAAAUCUGGGCCAGGCGGGCAUCAAAAGAAAUAGUCUUGCGCUCAACCAGAAAGUCUGUAACCAAUUUAAGGGUA, the self-cleavage was 0.52.
GUUAACGGUCAUAGGCCAUGGAAACUAGGAGCACCAUUUCGCUGCCAGUGAAGAAAUGAACAAGGAAAACCUGGGCCAGGCAGGCAUCAAAAGAAAUAGUCUUGCGCCCAACCAGGAAGUCUGUAAUCAUUUUAAGGGUA gave a self-cleavage of 0.02.
In the case of GUUAACGGUCAUAGGCCAUGGAAACUAGGAGCACCACUUCGCUGCCAGUGGAGAAAUGGACAAAGAAAAUCUGGGCCAGGCAGGCAUCAAAAGAAAUAGUCAUGCGCUCAACCAGAAAGUCUGUAAUCAUUUUAAGGGUA, the self-cleavage is reported as 1.54.
For GUUAACGGUCAUAGGCCAUGGAAACUAGGAGCACCAUUUCGCUGCCAGUGAAGAAAUGAACGAAGGAAAUCUGGGCCAGGCAGGCAUCAAAAGAAAUAGUCUUGCGCUCAACCAGAAAGCCUGUAAUCAUUUUAAGGGUA, the self-cleavage was 1.56.
With GUCAACGGUCAUAGGCCAUGGAAACUAGGAGCACCAUUUCGCUGCCAGUGAAGAAAUGAACAAAGGAAAUCUGGGCCAGGCAGGCAUCAAAAGAGAUAGUCUUGCGCUCAACCAGAAAGUCUGUAAUCAUUUUAAGGGUG the self-cleavage was 0.92.
GUUAACGGCCAUAGGCCAUGGAAACUAGGAGCACCAUUUCGCUGCCAGUGAAGAAAUGAACAAAGAAAAUCUGGGCCAGGCAGGCAUCGAAAGAAAUAGUCCUGCGCUCAACCAGAAAGUCUGUAAUCAUUUUAAGGGUA showed a self-cleavage of 2.62.
With GUUAACGGUCAUAGGCCAUGGAAACUAGGAGCACCAUUUCGCUGCCAGAGAAGAAAUGAACAAAGAAGAUCUGGGCCAGGCAGGCAUCAAAAGAAAUUGUCUUGCGCUCAACCAGAAAGUCUGUAAUCAUUGUAAGGGUA the self-cleavage was 2.08.
For GUUAACGGCCAUAGGCCAUGGAAACUAGGAGCACCAUUUCGCUGCCAGUGAAGAAGUGAACAAAGAAAAUCUGGGCCAGGCAGGCAUCAGAAGAAAUAGUCUUGCGCUCAACCAGAAAGUCUGUAAUCAUUUUAAGGGUA, the self-cleavage was 1.1.
With GUUAACGGUCGUAGGCCAUGGAAACUAGGAGCACCAUUUCACUGCCAGUGAAGAAAUGAACAAAGAAAAUCUGGGCCAGGCAGGCAUCAAAAGAAGUAGUCUUGCGCUCAACCAGAAAGUCUGUAAUCAUUUUAAGGGUA the self-cleavage was 1.52.
With GUUAACGGUCAUAGGCCAUGGAAACUAGGAGCACCACUUCGCUGCCAGUUAAGAAAUGAUCAAAGGAAAUCUGGGCCAGGCAGGCAUUAGAAGAAAUAAUCUUGCGCACAACCAGAAAGUCUGUAAUCAUUUUAAGGGUA the self-cleavage was 0.03.
For GUUAACGGUCAUAGGCCAUGGAGGCUAGGAGCACCAUUUCGCUGCCAGUGAAGAAAUGAACAAAGAAAAUCUGGGCCAGGCAGGCAUCAAAAGAAAUAGUCUUGCGCUCAACCAGAAAGUCUGUAAUCAUCUUAGGGGCA, the self-cleavage was 0.57.
In the case of GUUAACGGUCAUAGGCCAUGGAAACUAGGAGCACCAUUUCGCUGCCAGUGAAGAAAUGAACAAAGAAAGUCUGGGCCAGGCAGGCAUCAAAAGAAAUAGUCCUGCGCUCAACCAGAAAGUCCGUAAUCAUUUUAAGGGUA, the self-cleavage is reported as 0.85.
With GUUAACGGUCAUAGGCCAUGGAAACUAGGAGCACUAUUUCGCUGCCAGUGAAGAAAUGGACAAAGAAAAUCUGGGCCAGGCAGGCAUCAAAAGAGAUAGUCUUGCGCUCAACCAGAAAGUCUGUAAUCAUUUUAAGGGUA the self-cleavage was 0.86.
GUUGACGGUCAUAGGCCAUGGGAACUAGGAGCACCAUUUCGCUGCCAGUGAAGAAAUGAACAAAGGAAAUCCGGGCCAGGCAGGCAUCAGAAGAAAUAGUCUUGCGCUCAACCAGAAAGUCUGUAGUCAUUUUAAGGGUA showed a self-cleavage of 0.39.
GUUAACGGUCAUAGACCAUGGAAACUAGGAGCACCAUUUCGCUGCCAGUGAAGAAAUGAGCAAAGAAAAUCUGGGCCAGGCAGGCAUCAAAAGAAAUAGUCUUGCGCUCAACCAGAAAGUCUGUAAUCAUUUUAAAGGUA showed a self-cleavage of 1.23.
Work on GUUAACGGUCAUAGGCCAAGGAAACUAAGAGCACCAUUUCGCUGCCAGUGAAGAAAUGAACAAAGAAAAUCUGGGCCAGGCAGGCAUCAAAAGAGAUAGUCUUGCGCCCAACCAGAAAGUCUGUAAUCAUUUUAAGGGUA yielded a self-cleavage of 0.02.
Work on GUUAACGGUCAUAGGCCAUGGAUACUAGGAGCACCAUUUCGCUGCCAGUGAAGAAAUGAACAAAGAAAAUCUGGGCCAGGCUGGCAUCAAAAGAAAUUGUCUUGCGCUCAACCAGAAAGUCUGUAAUCAUUUUAAGGGUA yielded a self-cleavage of 0.5.
In the case of GUUAACGGUCGUAGGCCAUGGAAACUAGGAGCACCAUUUCGCUGCCAGUGAAGGAAUGAACAAAGAAAAUCUGGGCCAGGCGGGCAUCAAAAGAAAUAGUCUUGCGCUCAACCAGAAAGACUGUAAUCAUUUUAAGGGUA, the self-cleavage is reported as 0.27.
Work on GUUAACGGUCAUAGGCCAUGGAAACUAGGAGCACCAUUUCGCUGCCUGUGAAGAAAUGAACAAAGAAAAUCUGGGCCAGGCAGGCAUCAAAAGGAAUAGUCUUGCGCUCAACCAGAAAGUCUGUAAUCCUUUUAGGGGUA yielded a self-cleavage of 0.2.
For GUUAACGGUCAUAGGCCAUGGAAACUAGGAGCACCGCUUCGCUGCCAGUGAAGAAAUGAACAAAGAAAAUCUGGGCCAGGCAGGCAUCAAAAGAAAUAGUCUUGCGCUCAACCAGAAAGCCUGUAAUCAUUUUAAGGCUA, the self-cleavage was 0.32.
For GUUAACGGUCAUAGGCCAUGGAAACUAGGAGCACCAUUUCGCUGCCAGUGAAGAAAUGAGCAAAGAAAAUCUGGGCCAAGCAGGCAUCAAAAGAAAUGGUCUUGCGCUCAACCAGAAAGUCUGUAAUCAUUUUAAGGGUA, the self-cleavage was 0.07.
GUUAACGGUCACAGGCCUUGGAAACUAGGAGCACCAUUUCGCUGCCAGUGAAGAAAUGAACAAAGAAAAUCUGGGCCAGGCAGGCAUCAAAAGAAAUAGUCUUGUGCUCAACCAGGAAGUCUGUAAUCAUUUUAAGGGUA gave a self-cleavage of 0.07.
